# The full ranking holds about 33,000 sequences; the median of “E-score (-0.5 to 0.5)” is about -0.016, and the highest 2% start at about 0.32. The list shows a part of the results.
# Molecular target: T1, Stp1 (UniProt B3LFK1)
# T1 sequence: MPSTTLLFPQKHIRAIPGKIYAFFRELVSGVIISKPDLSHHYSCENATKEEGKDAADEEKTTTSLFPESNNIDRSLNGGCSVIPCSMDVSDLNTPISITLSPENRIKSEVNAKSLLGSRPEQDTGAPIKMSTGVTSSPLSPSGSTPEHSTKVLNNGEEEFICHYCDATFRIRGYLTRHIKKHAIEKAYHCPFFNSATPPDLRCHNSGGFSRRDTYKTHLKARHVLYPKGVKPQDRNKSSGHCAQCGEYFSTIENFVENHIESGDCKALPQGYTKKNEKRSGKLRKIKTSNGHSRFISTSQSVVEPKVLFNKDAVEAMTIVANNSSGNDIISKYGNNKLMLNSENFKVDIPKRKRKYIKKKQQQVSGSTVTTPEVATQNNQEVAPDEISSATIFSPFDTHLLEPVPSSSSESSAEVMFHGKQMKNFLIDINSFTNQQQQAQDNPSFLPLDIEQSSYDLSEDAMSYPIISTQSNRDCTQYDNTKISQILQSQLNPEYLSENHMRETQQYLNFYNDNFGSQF
# Assay: PBM E-score (8-mer binding enrichment) (E-score (-0.5 to 0.5)); higher = stronger / more preferred TF binding; most listed sequences are background and not binding sites
# Details: protein concentration: 200 nM; construct: GST-full length
# How it was run: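 Bound GST-tagged yeast transcription factors, applied at about 100-200 nM to double-stranded universal all-10-mer Agilent arrays, were detected with fluorescent anti-GST. Scans were normalised with masliner. A modified Wilcoxon-Mann-Whitney statistic, the E-score, was assigned to each ungapped eight-base word pooled with its reverse complement by the Universal PBM Analysis Suite.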
row,Sequence,PBM E-score
1,AAGCTTCC,-0.231
2,TGTAGCAA,-0.0432
3,GCTCACCA,-0.249
4,CTGTAGCC,0.041
5,GCCCATAA,-0.0177
6,CGCTTACA,0.0771
7,GAATCGAC,-0.0272
8,CTAACCTA,-0.0909
9,GAGACTGA,-0.0955
10,AATTACCA,0.146
11,AAAAGTGT,0.0382
12,GGGACGTA,-0.164
13,CAACATGG,0.0104
14,ATGGCACG,0.354
15,ACCCTGCA,-0.0103
16,ATAGATTC,0.042
17,AACGATTA,-0.0188
18,ATCGGCGA,0.0557
19,ATACGTAT,0.186
20,CTTGGGCA,-0.0164
21,GCTCCCCA,-0.407
22,AGACGAGA,-0.112

row,Sequence,PBM E-score
1,ATAGATCC,0.0305
2,ACTGACAT,-0.0444
3,GGCTAAAA,0.088
4,CCTCTAAC,-0.0799
5,ATTTTACG,0.299
6,CGAATGAG,0.179
7,AACTTTAT,0.0488
8,CAGTAATC,0.0108
9,AGACAAAG,0.00552
10,ACGATCCA,-0.0345
11,GCCATGTA,-0.0112
12,TAATAACA,0.145
13,GATAGTCC,-0.271
14,AACGATAC,-0.121
15,GCCGAAAC,-0.0114
16,GCATCGCA,-0.149
17,AATTAGAT,0.104
18,AAGGTTGG,-0.0584
19,GATTGAGA,0.133
20,GTATTGGA,-0.067
21,AAGCTACG,0.0193
22,CTTAGTCA,-0.144

row,Sequence,PBM E-score
1,CCACTCCG,-0.115
2,CCTAAGAA,-0.057
3,GTCCCCCA,-0.318
4,ACCGGATC,-0.177
5,GGACAAGA,-0.0443
6,ATATTCAA,0.253
7,CCACGTAA,0.111
8,GCAATGCC,0.261
9,CTACACAC,0.0156
10,CCCGTAGC,-0.24
11,AATAAGCG,0.0513
12,GACGGGGC,0.143
13,CAACGTTA,0.0372
14,AATTCACA,0.104
15,CCTAGGCG,-0.0358
16,TTACTAAA,0.246
17,GTATTCCA,-0.0347
18,CGAAGTGC,0.245
19,ATACTATG,0.197
20,ACATGCTG,-0.0883
21,ATTACTAA,0.199
22,GGGGGCCA,-0.303

row,Sequence,PBM E-score
1,ACCCATTC,-0.0381
2,CGTGCAGC,0.184
3,ATAATGGA,0.0869
4,AATAAAAC,0.192
5,GGCAAGTA,0.11
6,GTCAGAAA,-0.00292
7,ACACAACC,0.132
8,CATGATTC,-0.215
9,CTAAGTTC,-0.112
10,AACATATA,0.156
11,AGGGCTGG,-0.176
12,CGGGGGGA,-0.386
13,GACCCGTC,-0.249
14,AGAGTTCA,-0.282
15,CATTTGGA,0.115
16,CAAGCAAG,-0.0234
17,AATGTTAA,0.0126
18,ACTGCGAT,-0.113
19,AGACCGCA,-0.132
20,CACCGACC,-0.127

# Reference: the supplement of paper PMC3334620
